According to publication PMC12203670:
These are yes or no findings as the source states them, for the method shown. Some results given as binding are weak or reduced against the parent protein; the word gives no strength. Sequences can lack the tags named with a protein.

By UniProt entry, the sequences of proteins in these tests, tags left out.
UniProt P52480: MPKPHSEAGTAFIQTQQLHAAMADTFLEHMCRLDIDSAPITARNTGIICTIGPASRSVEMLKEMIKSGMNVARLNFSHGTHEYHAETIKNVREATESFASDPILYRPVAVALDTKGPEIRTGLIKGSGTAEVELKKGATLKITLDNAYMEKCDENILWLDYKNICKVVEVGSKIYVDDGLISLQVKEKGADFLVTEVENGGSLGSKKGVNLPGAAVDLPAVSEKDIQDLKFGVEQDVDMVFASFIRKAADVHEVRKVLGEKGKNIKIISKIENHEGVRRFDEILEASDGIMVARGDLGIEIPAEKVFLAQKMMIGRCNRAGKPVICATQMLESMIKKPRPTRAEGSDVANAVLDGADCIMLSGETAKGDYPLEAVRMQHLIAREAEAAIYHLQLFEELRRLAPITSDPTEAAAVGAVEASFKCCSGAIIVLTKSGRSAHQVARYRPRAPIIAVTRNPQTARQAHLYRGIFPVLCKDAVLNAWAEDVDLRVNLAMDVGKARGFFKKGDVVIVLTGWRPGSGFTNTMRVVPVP

Molecular target: GST-PKM2, purified recombinant (UniProt P52480)
Assay: pull-down; GST pull-down with purified recombinant GST-PKM2 and His-MTX2; both purified

binding: binds
B1: polyhistidine-MTX2, purified recombinant (protein, UniProt O88441 1-263)
chain: MSLVAEAFVSQIAATEPWPENATLYQQLRGEQILLSDNAASLAVQAFLQMCNLPVKVVCRANAEYMSPSGKVPFIHVGNQVVSELGPIVQFVKAKGHSLSDGLDEVQKAEMKAYMELVNNMLLTAELYLQWCDEATVGEITIARYGSPYPWPLNHILAYQKQWEVKRKMKAIGWGNKTLDQVLEDVDQCCQALSQRLGTQPYFFNKQPTELDALVFGHLYTILTTQLTSDELSEKVKNYSNLLAFCRRIEQHYFEDWGKGRLS
